Data on 90 sequences can be found in the supplement of paper PMC11417369.

The list shows a part of the results.

In this test the test system is PfHDP1 homeodomain (GST-tagged). Kind of test: gcPBM binding intensity (ln(normalized median fluorescence intensity)); higher = stronger DNA binding. In short, it runs like this:
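GST-tagged P. falciparum DNA-binding domains, expressed in E. coli (about 25 μg on average), were applied for 1 h to an Agilent 4 × 180k array of primer-extended double-stranded 36-bp intergenic genomic probes plus negative controls. The binding buffer was 1× PBS with 1% milk, 0.2 mg/ml BSA, 0.5% salmon testes DNA and 0.03% Triton X-100. Bound protein was detected with Alexa488 anti-GST antibody and scanned at 488 nm. Binding intensity is the highest Masliner-normalised natural-log median intensity across replicate spots of either probe orientation.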
In the case of “AAAAAAAGGTAAAATTGTACATACGCACAAAAATAT [XGTACX_site2887]”, the “gcPBM binding intensity (ln)” value came out at 6.78. Next, “TGCACGCACAGACACACACACAACTAAAAAATAATG [CACACA_site7250]”: 7.5; TAATATCGTATATGAGTGCAATATTTTAGATTTTGA: 9.08. Then “AATATATCAAAAATGATGACATAAATATATTAATTT [GTGCAC_negctrl_site530]”, with 6.13. Then “ATATTATTTATAAAAGTGCAAAAATCACTTCTTTTA [GTGCAC_site9656]”, with 7.77; and “TTTAAAAAGTTATGAAGTACATATATATATATATAT [XGTACX_site2188]”, with 9.33; and “ATTTCCTTGAATGTTGCATGCTGTATTTTAATTAAA [TGCATGCA_site280]”, with 7.73. As for “AAAAAAAGGAAATTTACACACACATATAATATACAT [CACACA_site3297]”, the “gcPBM binding intensity (ln)” value turned out to be 6.95. Next, TAGATTATTATACTAGTGCAAATTATTTAAGAAAAA: 9.87; “TAAATTTTTCTAAGTGCATGTTAATTTTTCAATTTA [TGCATGCA_site906]”: 7.99.

In the case of “AAAAAAAAAAAGTGCACACATAAAAATATGATCTAA [CACACA_site572]”, the “gcPBM binding intensity (ln)” value amounted to 9.08. Regarding “AAAGAGAAACAAAATTGTACATTATATTGTAGACGT [XGTACX_site976]”, the “gcPBM binding intensity (ln)” value is 6.69. As to “TATATTTATAAGTGTACACATTATATAAATCCCTAT [CACACA_site6122]”, the “gcPBM binding intensity (ln)” value amounted to 6.73.

Turning to “GAACAAAATGATAGAAGTACAAATATTTATTTTGTT [XGTACX_site7146]”, the “gcPBM binding intensity (ln)” value was determined as 6.52. Next, “TGGGAACAATATATTTGTACTTAAATAAATAAAAAA [XGTACX_site6762]”: 6.36. Next, “TTTTTTTTTTTTGTCACACACCTTCATAAGAAAAAA [CACACA_site4779]”: 6.58. Then “ATCATCACATAAGAAAATAGATAAAAAAAAAAAAAT [XGTACX_negctrl_site589]”, with 6.25.

Regarding “TAAATCCGCAGGCACACACACATATTAAGAAAAAAA [CACACA_site6061]”, the “gcPBM binding intensity (ln)” value amounted to 6.48. Then “GTACAGATATTGTACATACACACCTATATAAATATC [CACACA_site5739]”, with 6.51; and “ATGAAAAAACATAATTGTACAAAAGTTGGATTCGAT [XGTACX_site7732]”, with 7.56. Then “ATTAAATGATTCATATGTACATAAATAAATAAATAT [XGTACX_site2249]”, with 6.8; and “TTTCTTTTTAAAGTGTATTAAAATTGAATAAAAAGA [XGTACX_negctrl_site408]”, with 6.71. Then “TATTAATATTTACACACATGCGCACACATAAATAAA [TGCATGCA_site609]”, with 7.97; and “AAAAAAAAAAAACATACACACAAGAACAAAATATGA [CACACA_site3002]”, with 6.76; and “AGTCTTTTACATTGCACACACATTTCTTTCCTTTTG [CACACA_site2988]”, with 9.94.

“TAATTAGCATAATACACATGCATACATTTATATATA [TGCATGCA_site542]”: the “gcPBM binding intensity (ln)” value came out at 6.77. Turning to TACATATATCTATGTGTGCACTTATTTCCGGACAAA, the “gcPBM binding intensity (ln)” value was found to be 9.61.

For the sequence “TATTTAAAAGATGAAAGTACACATTTAATTACATTT [XGTACX_site3781]”, the “gcPBM binding intensity (ln)” value worked out at 6.17.

As for “ATGTGTATACTAAGAACACACAAGTTACTTGGTGTT [CACACA_site6864]”, the “gcPBM binding intensity (ln)” value is 6.41. “TATATTTAACATACTTTTTTTTTTTTTTTTTTTTTT [CACACA_negctrl_site938]”: the “gcPBM binding intensity (ln)” value came to 6.96. Next, “TAAGAAAAATATATATGTACACATATATATATATAT [XGTACX_site8542]”: 9.25; “AACTTTTATACGGATACACACAAAAAAAAATAAAAA [CACACA_site6547]”: 6.61; “TGTATGTTATATACAACACACAAAAAAAAACAAGTT [CACACA_site301]”: 6.51.

On to “TATCTGTATTTGTATACACACAAATGTATTTATTTA [CACACA_site4830]”, for which the “gcPBM binding intensity (ln)” value was found to be 6.68.

With TACAATATTTCGAGCTTGCACTTTTATTAAGTAAAT, the “gcPBM binding intensity (ln)” value was found to be 7.68.

As to “TATACAGACAGACACACACACATATATAAATATGTA [CACACA_site6912]”, the “gcPBM binding intensity (ln)” value amounted to 6.69. Next, “ATTATTATTTTTAACTGTACATAGATATAGATATCC [XGTACX_site8714]”: 6.47. In the case of “TTTTTAAAATATTTAACACACAATTATAATGCATAA [CACACA_site3932]”, the “gcPBM binding intensity (ln)” value came out at 6.78.

Consider “AGTAGTCTGGAGAAATGTACACAGTATCTGGTAGCT [XGTACX_site4871]”, for which the “gcPBM binding intensity (ln)” value came out at 6.28. Next, “AATATGTGTATAGATAGTACACATGCTGATAATATA [XGTACX_site5941]”: 6.59; “AAAATTTTGGAACGTGCACACATATGTAATATATAT [CACACA_site9004]”: 9.19; “ATGTCCTATATTAGTACACACATGAAAATATAAATA [CACACA_site7497]”: 6.69. With “AACCATACACAAATAAACATAGACACAGATACCTCC [CACACA_negctrl_site598]”, the “gcPBM binding intensity (ln)” value was found to be 6.63. Next, “AATATAAAAAAAAACAAAAAAAAAATTTTGGTTCAC [CACACA_negctrl_site1290]”: 5.77. Then “TTATTGTTATTTGTTTGTACATAATATAATATATTA [XGTACX_site6477]”, with 6.47; and “ACAATTAATCAAACAAGTACAAAATATATCCCTATT [XGTACX_site6223]”, with 6.35; and “TCCTATGATGATGATAGTACATATGAGTTCAAAAAA [XGTACX_site273]”, with 6.02. Next, “AATAATAAATAAATGTGTACTTAAAAATATTATATT [XGTACX_site3005]”: 6.45; “CAAAGTATTATGATTACACACATGTGCTTTTTTCTT [CACACA_site163]”: 6.36; “TTGTATCATATATTATGTACATATTGATTTATTACC [XGTACX_site12]”: 6.41.

As to “TAAGTCATATAAATGTGTACATAAAAAAAAAAAATG [XGTACX_site1645]”, the “gcPBM binding intensity (ln)” value worked out at 6.77.

Take “TTTTTTTTTTTTTTTTCACACATTGTACTTTTTTAT [CACACA_site5193]”: the “gcPBM binding intensity (ln)” value turned out to be 6.41.

Take “ATCATTTGCATACGCACACACACATAAAAAGAAAAA [CACACA_site355]”: the “gcPBM binding intensity (ln)” value was found to be 8.44. Next, “TCTATCAAATTTGAAGGTACACATTTGAGATAATTA [XGTACX_site3797]”: 6.41. Next, “TATATTTATTTATATACACACATAATAAAAAATATA [CACACA_site6527]”: 6.49; “TACTTATTGTGATACTTATATTATTTTATGATTAAA [XGTACX_negctrl_site353]”: 6.29; “TATTAATGATAAAAAAGTACATTATTATATGATATT [XGTACX_site4235]”: 6.32.

On to “AGCTTGTAACAGTTTACACACTAATATTTATAAATT [CACACA_site6024]”, for which the “gcPBM binding intensity (ln)” value was 6.88. As to “ATATTTTTTTTTTTATGTACTTATTTATAATTATTT [XGTACX_site5279]”, the “gcPBM binding intensity (ln)” value stood at 6.67.

With ATTATACAAATTGAGGTGCATGAAACAAAATATGAA, the “gcPBM binding intensity (ln)” value was 8.66. With “CACCAAAATATATGTACATATGATAAATGTGAATAT [GTGCAC_negctrl_site83]”, the “gcPBM binding intensity (ln)” value amounted to 7.06. Next, CTTTTCTATTTTTTCGTGCACTATAAATATTTTAAT: 10.1. Next, “TTTTACAATATTTTGTGTACTTATATTATGAGCTTA [XGTACX_site3287]”: 6.46. Next, “TAACTTTTTTTTTTTTTTTTTTAACTTTTATGTAAT [GTGCAC_negctrl_site156]”: 6; “AAAATTATCGTTATATGTACGCATCTTAATACGTAT [XGTACX_site4063]”: 6.06. For “ATAATCCACAAGCACACACACACACCCATATATATA [CACACA_site1268]”, the “gcPBM binding intensity (ln)” value came out at 7.2. Next, “TATATATATATATATATATATATATATGTATATATG [XGTACX_negctrl_site242]”: 9.49; “AACTTTAAACCCTGAACACACACAAATACACCCAAA [CACACA_site7971]”: 7.16; “TTTTTTTTTTTTTTTGCACACATTTTAATTATTTTT [CACACA_site341]”: 9.27. As for “CTCAAAAAATATGAACGTACAAAATAAGTAATGACA [XGTACX_site590]”, the “gcPBM binding intensity (ln)” value was found to be 7. Then “AACTCATAGGAGTGTGCACACAAAAAATTAAAAAAA [CACACA_site8996]”, with 11; and “ATACATATTAATATGTGTACACATTTTTATTTTTTT [XGTACX_site930]”, with 6.75.

Regarding “AAAAAAAAAAAAAAAGGTACACAAAACGGTATTATT [XGTACX_site7064]”, the “gcPBM binding intensity (ln)” value turned out to be 6.38. Next, “TTTTTTTTTTTTGTCACACATATGGAATATATCTAT [CACACA_site5899]”: 6.42. Next, “TTTGTCAACCAAAATTGTACAAATGTATTCCCAATA [XGTACX_site1350]”: 6.18. Then “TTATTTATCAAAAAATGTACAAAAATATATAAACAA [XGTACX_site940]”, with 6.71; and “TTATATTTATTTAATGAACACACGATATATTATTTT [CACACA_site1601]”, with 6.34; and “TTTTAAAAAAGAAAAAAAAAGGATCAGAGAAATATT [GTGCAC_negctrl_site79]”, with 6.39. For the sequence “TTGTAGATATTTATATGTACGAATTTATAAATATAG [XGTACX_site3611]”, the “gcPBM binding intensity (ln)” value turned out to be 6.25. Then “AAAAAAATTAATAATGTGCACTTTTTAGTATTTTTA [GTGCAC_site9744]”, with 9.48. As for “AAATGTTAATTAAATGCATGTACAAAAGGAGCGAAT [TGCATGCA_site942]”, the “gcPBM binding intensity (ln)” value came to 7.93. Then “GCATAATATACTCTTACACACCATTTCTATATACAT [CACACA_site6799]”, with 7.23; and “TTTGTTAATTATAAATGTACATATTATATATATATA [XGTACX_site8870]”, with 8.42.

Regarding “TATATATATATGTATACACACATATGTATGTTATGT [CACACA_site4053]”, the “gcPBM binding intensity (ln)” value was determined as 8.97. Turning to “TTAAAACCAAAACACAGTACATATATATATATATAT [XGTACX_site5668]”, the “gcPBM binding intensity (ln)” value was found to be 9.38.

For the sequence “AAAATATATTATATATGTACATATTACGTTTTAATT [XGTACX_site2518]”, the “gcPBM binding intensity (ln)” value amounted to 6.8.

For “CAATTTTAAGTAATCAATTTTTTTAAAAAACACAAA [CACACA_negctrl_site961]”, the “gcPBM binding intensity (ln)” value turned out to be 6.35. Next, “AAATTAATTAAATATACACACATATATAAATATATA [CACACA_site391]”: 6.29; “ATATATATATAAAGTTGTACATTTTTTATTTTTTCA [XGTACX_site7847]”: 8.52. Then “TTGTTTTTAGTTTATACACACCATATTAATATAATG [CACACA_site7452]”, with 7.35.
